Experimental data taken from PMC7364817.
These are yes or no findings as the source states them, for the method shown. In cells and extracts the contact can be indirect. Some results given as binding are weak or reduced against the parent protein; the word gives no strength. Tags and fused reporters may be left off the sequences shown. One block for each molecule: values may come before it.

Sequences of proteins named here, by UniProt entry; tags and fusion partners are left off.
UniProt Q13283: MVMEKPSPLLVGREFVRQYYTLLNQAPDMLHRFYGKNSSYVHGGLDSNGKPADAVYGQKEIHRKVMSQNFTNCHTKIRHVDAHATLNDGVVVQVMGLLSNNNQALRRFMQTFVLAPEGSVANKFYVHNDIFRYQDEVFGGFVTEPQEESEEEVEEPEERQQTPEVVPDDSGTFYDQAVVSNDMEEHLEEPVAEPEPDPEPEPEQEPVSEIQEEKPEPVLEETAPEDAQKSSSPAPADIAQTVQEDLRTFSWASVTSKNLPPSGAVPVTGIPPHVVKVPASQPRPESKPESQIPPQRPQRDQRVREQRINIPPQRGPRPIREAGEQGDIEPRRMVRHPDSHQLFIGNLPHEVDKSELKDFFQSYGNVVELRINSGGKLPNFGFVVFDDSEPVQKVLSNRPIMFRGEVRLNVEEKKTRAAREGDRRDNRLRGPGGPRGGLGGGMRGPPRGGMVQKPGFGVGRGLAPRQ
UniProt P62820: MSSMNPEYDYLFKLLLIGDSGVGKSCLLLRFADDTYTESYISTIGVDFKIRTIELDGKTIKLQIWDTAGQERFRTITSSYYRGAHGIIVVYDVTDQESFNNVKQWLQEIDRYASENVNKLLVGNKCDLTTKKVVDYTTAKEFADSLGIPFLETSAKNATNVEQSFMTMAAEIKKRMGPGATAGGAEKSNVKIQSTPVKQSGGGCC
UniProt Q13148: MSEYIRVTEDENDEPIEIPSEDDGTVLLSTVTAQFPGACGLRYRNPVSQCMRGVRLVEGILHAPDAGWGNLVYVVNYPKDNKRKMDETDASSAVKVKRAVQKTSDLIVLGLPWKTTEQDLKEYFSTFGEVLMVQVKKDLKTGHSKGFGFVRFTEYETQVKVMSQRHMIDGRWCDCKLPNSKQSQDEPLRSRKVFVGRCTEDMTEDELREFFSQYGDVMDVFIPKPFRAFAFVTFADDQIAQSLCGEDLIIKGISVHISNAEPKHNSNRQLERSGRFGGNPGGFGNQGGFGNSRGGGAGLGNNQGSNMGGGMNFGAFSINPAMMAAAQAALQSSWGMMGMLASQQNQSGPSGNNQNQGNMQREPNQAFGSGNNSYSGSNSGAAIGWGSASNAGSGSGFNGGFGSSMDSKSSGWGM
UniProt Q9UNE7: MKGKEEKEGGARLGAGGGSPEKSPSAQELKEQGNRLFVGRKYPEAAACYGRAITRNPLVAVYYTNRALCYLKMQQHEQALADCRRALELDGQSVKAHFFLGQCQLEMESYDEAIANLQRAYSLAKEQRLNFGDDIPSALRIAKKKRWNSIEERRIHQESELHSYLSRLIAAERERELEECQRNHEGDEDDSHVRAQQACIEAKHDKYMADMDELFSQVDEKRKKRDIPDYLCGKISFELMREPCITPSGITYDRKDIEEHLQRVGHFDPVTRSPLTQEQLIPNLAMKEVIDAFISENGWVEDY
UniProt P51149: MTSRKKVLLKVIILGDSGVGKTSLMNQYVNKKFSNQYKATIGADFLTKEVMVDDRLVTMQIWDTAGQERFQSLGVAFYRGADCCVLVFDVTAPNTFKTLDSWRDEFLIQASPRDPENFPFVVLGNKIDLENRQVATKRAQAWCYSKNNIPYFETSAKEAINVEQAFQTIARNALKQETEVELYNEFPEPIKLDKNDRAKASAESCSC

Key:
[1] = target: T1, FLAG-tagged SMCR8 (Smith-Magenis Syndrome Chromosome Region, Candidate 8) (UniProt Q8TEV9); test: co-IP; tagged test protein cotransfected with FL-SMCR8 or empty vector in HEK 293T; lysis buffer 160 mM NaCl, 50 mM Tris, 1 mM EDTA, 0.25% NP40; IP on α-FLAG agarose with or without 50 μg/ml RNases; Western blot
T1 sequence: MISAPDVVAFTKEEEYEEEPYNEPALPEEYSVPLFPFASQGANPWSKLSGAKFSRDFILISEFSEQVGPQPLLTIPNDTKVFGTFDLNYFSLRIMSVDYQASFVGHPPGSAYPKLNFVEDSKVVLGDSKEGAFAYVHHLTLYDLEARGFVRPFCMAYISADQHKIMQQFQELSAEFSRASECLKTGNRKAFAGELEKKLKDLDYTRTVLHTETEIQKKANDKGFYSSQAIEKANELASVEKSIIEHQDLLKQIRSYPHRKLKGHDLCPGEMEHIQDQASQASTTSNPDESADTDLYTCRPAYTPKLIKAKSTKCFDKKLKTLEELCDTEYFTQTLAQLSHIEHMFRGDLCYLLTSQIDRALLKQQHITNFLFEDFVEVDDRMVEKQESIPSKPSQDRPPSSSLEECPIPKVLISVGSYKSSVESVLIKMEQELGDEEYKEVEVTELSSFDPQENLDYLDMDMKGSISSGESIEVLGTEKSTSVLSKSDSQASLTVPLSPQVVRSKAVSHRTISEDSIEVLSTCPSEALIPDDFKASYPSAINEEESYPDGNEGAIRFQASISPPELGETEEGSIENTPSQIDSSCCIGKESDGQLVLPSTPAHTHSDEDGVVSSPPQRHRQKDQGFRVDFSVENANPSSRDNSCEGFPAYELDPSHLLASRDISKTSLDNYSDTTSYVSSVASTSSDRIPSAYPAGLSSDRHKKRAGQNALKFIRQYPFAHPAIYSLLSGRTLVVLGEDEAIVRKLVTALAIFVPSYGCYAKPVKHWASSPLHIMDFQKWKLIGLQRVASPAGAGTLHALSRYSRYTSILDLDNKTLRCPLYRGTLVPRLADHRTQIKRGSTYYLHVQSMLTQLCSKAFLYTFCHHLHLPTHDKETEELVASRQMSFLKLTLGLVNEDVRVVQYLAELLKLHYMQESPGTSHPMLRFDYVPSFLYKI

[2] = target: T2, C9orf72 long isoform with C-terminal FLAG tag (human) (UniProt Q96LT7); test: co-IP; V5-RAB7A with overexpressed C9orf72, data not shown; with or without RNase
T2 sequence: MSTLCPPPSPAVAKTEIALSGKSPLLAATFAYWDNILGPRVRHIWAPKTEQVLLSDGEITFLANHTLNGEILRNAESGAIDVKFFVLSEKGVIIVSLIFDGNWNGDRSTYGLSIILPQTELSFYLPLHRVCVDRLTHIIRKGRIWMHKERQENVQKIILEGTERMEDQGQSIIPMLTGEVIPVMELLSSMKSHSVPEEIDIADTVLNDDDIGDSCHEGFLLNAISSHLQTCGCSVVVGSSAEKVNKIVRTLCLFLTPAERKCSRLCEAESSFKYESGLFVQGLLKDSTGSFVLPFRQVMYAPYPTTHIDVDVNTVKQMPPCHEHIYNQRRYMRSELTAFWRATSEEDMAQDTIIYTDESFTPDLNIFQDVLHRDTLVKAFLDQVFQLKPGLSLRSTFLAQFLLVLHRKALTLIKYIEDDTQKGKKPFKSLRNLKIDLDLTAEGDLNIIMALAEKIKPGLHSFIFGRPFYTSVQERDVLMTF

[3] = target: T2, C9orf72 long isoform with C-terminal FLAG tag (human); test: co-IP; α-FLAG IP from lysates of HEK 293T cells transfected with the FLAG-tagged bait, Western blot of the immunoprecipitate; also in the presence of RNase
[4] = target: T3, FLAG-tagged WDR41 (WD Repeat domain 41) (UniProt Q9HAD4); test: as above
T3 sequence: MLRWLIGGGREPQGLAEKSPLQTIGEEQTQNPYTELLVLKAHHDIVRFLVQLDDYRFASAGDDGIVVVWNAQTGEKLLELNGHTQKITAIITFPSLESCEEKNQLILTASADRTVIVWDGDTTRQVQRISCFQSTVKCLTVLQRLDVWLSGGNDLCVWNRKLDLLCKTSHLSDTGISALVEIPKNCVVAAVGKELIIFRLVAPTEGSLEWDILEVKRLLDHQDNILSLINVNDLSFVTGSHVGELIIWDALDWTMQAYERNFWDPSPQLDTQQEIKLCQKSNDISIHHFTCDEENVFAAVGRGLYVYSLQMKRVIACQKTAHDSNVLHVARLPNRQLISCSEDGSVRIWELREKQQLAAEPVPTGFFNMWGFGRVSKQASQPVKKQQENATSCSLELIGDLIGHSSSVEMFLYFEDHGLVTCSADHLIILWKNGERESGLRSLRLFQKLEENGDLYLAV

[5] = target: T1, FLAG-tagged SMCR8 (Smith-Magenis Syndrome Chromosome Region, Candidate 8); test: as above
[6] = target: T4, FLAG-tagged WDR41 (WD Repeat domain 41), Q9HAD4; test: as above; details: remark: other sources report otherwise
T4 chain: T3 sequence

- binding [1]: no binding
Molecule: V5-tagged G3BP1 (from UniProt Q13283 1-466)

- binding [1]: binds
Molecule: V5-tagged SQSTM1 (p62) (from UniProt Q13501 1-440)

- binding [1]: no binding
Molecule: V5-tagged RAB1A (from UniProt P62820 1-205)

- binding [1]: binds
Molecule: tagged TAR DNA binding protein 43 (TDP-43) (from UniProt Q13148 1-414)

- binding [1]: binds
Molecule: V5-tagged STUB1 (from UniProt Q9UNE7 1-303)

- binding [1]: binds weakly
- binding [2]: binds weakly
Molecule: V5-RAB7A (from UniProt P51149 1-207)

- binding [3]: binds
- binding [4]: binds
B1: Smith-Magenis syndrome chromosome region, candidate 8, endogenous (protein, UniProt Q8TEV9 1-937)
chain: T1 sequence

- binding [3]: binds
B2: HA-tagged SMCR8 (protein, UniProt Q8TEV9 1-937)
chain: T1 sequence

- binding [5]: no binding
- binding [4]: no binding
B3: C9orf72 short isoform, endogenous (protein, UniProt Q96LT7-2 1-222)
chain: MSTLCPPPSPAVAKTEIALSGKSPLLAATFAYWDNILGPRVRHIWAPKTEQVLLSDGEITFLANHTLNGEILRNAESGAIDVKFFVLSEKGVIIVSLIFDGNWNGDRSTYGLSIILPQTELSFYLPLHRVCVDRLTHIIRKGRIWMHKERQENVQKIILEGTERMEDQGQSIIPMLTGEVIPVMELLSSMKSHSVPEEIDIADTVLNDDDIGDSCHEGFLLK

- binding [5]: binds
B4: chromosome 9 open reading frame 72, long isoform, endogenous (protein, UniProt Q96LT7 1-481)
chain: T2 sequence

- binding [6]: binds
B5: chromosome 9 open reading frame 72, long isoform, endogenous, Q96LT7 1-481 (protein)
chain: T2 sequence
